# Reference: PubChem BioAssay AID624417 (National Center for Advancing Translational Sciences (NCATS), 2012)
# The whole screen tested about 410,000 compounds, of which about 6,400 (1.6%) were called active. This list was built around the results that the source calls inconclusive (neither active nor inactive); the mix of calls is not that of the screen. Calls come from the whole dose curve; as a rule, active = well fitted inhibition curve with a large enough effect; inconclusive = small, poorly fitted or top-dose-only effect; inactive = no such curve, though single readings can be large or run the other way. No potency is given beside an inconclusive call; the fits are too rough.
# Biological target: Glucagon-like peptide 1 receptor (Homo sapiens) (UniProt P43220)
# Sequence of UniProt P43220 (P43220 whole entry, looked up): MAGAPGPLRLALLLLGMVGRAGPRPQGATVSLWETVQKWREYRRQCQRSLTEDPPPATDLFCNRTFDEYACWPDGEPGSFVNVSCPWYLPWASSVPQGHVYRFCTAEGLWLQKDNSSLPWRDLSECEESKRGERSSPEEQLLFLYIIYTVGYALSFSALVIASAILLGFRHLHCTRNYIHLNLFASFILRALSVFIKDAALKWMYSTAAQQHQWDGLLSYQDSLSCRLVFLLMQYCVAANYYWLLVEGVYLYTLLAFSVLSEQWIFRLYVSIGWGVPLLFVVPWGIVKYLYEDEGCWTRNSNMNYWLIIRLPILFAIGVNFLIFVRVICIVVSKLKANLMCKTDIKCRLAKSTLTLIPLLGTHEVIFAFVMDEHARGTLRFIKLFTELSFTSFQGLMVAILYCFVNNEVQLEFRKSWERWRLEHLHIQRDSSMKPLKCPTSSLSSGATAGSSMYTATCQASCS
# Experiment: qHTS of GLP-1 Receptor Inverse Agonists (Inhibition Mode); note: nearly all actives have a fitted effect of over 55% in size
# Details: HEK293 GLP-1R CRE-luciferase, luminescence, 24 h, GLP-1R form is constitutively active; series mostly up to 38.3 µM
# Procedure, shortened: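 Using stably transfected HEK293 (constitutively active GLP-1R, cAMP-luciferase reporter), compounds were incubated 24 hr and luciferase measured by luminescence.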
# Potency is the fitted concentration of half-maximal effect; tags give direction and shape of the fitted curve.
row,SMILES,Potency
1,Clc1ccc(-c2noc(COc3ccccc3)n2)cc1,inactive
2,COc1ccc(NC(=O)CCNC(=O)Cn2cnc3sc4c(c3c2=O)CCCC4)cc1OC,inactive
3,Oc1ccccc1C1CC(c2cccs2)=NC(c2ccc(Cl)cc2)N1 (configuration not stated),"inconclusive [inhibitor, partial curve, poor fit]"
4,CCOc1cccc(/C=N/NC(=O)c2cc(C3CC3)[nH]n2)c1O,"inconclusive [inhibitor, partial curve]"
5,O=C(NCC(c1ccco1)N1CCCCC1)c1cccc(S(=O)(=O)Nc2ccc(F)cc2)c1 (configuration not stated),"inconclusive [inhibitor, partial curve, poor fit]"
6,O=C(Nc1ccccc1C(=O)Nc1nnc(C(F)(F)F)s1)c1ccccc1Cl,"inconclusive [inhibitor, partial curve, poor fit]"
7,CC(C)CCNC(=O)c1csc2c1CCCCC2,"inconclusive [inhibitor, partial curve, poor fit]"
8,CCN(c1ccccc1)S(=O)(=O)c1ccc(Cl)c(NC(=O)CNC(C)c2ccccc2)c1 (configuration not stated),"inconclusive [inhibitor, full curve, poor fit]"
9,CCC/C=C/c1ccc(CN2C(C)C(=O)N(Cc3cn(Cc4ccco4)nn3)CCS2(=O)=O)cc1 (configuration not stated),"inconclusive [inhibitor, single point]"
10,COc1cccc(-c2ccc(=O)n(CC(=O)NCCN3CCOCC3)n2)c1,inactive
11,COc1ccccc1C(NC(=O)CC(C)C)c1c(O)ccc2ccccc12 (configuration not stated),inactive
12,CC(=O)Nc1ccc(NS(=O)(=O)c2ccc3[nH]c4c(c3c2)CCCCC4)cc1,inactive
13,COc1cc(-c2nnc(CSc3nnc(Nc4ccc(Oc5ccccc5)cc4)s3)o2)cc(OC)c1OC,"inconclusive [inhibitor, single point]"
14,CCOc1ccc(C(=O)NCC(c2ccc3c(c2)OCO3)N2CCN(c3ccc(F)cc3)CC2)cc1 (configuration not stated),inactive
15,COC(=O)C1=C(C)N(Cc2ccccc2)C(=O)N[C@H]1c1ccc(Br)cc1,"inconclusive [inhibitor, single point]"
16,CC(=O)Oc1cc2c(C(=O)NCCCN3CCOCC3)c(C)oc2c2ccccc12,"inconclusive [inhibitor, single point]"
17,CC(C)(C)NC(=O)CSc1nc2ccccc2n1-c1ccccc1,active: 10 µM
18,CCOc1ccc(Oc2ccccc2NC(=O)CN2C(=O)NC3(CCCC3)C2=O)cc1,"inconclusive [inhibitor, partial curve, poor fit]"
19,CCC(C)NC(=O)N1c2ccccc2Sc2ccccc21 (configuration not stated),"inconclusive [inhibitor, partial curve, poor fit]"
20,CCn1c(SCC(=O)c2cc(C)n(CC3CCCO3)c2C)nc2ccccc21 (configuration not stated),"inconclusive [inhibitor, partial curve, poor fit]"
21,COc1ccc(OC)c(NC(=O)c2ccc(-c3cccs3)cc2)c1,"inconclusive [inhibitor, single point]"

row,SMILES,Potency
1,COc1cc(CNC2CCCC2)cc(OC)c1,"inconclusive [inhibitor, full curve, poor fit]"
2,CCN1CCN(c2ccc(S(=O)(=O)N3CCCCC3)cc2NC(=O)/C=C/c2ccc(Cl)cc2)CC1,"inconclusive [inhibitor, partial curve, poor fit]"
3,COc1ccc(Cl)cc1NC(=S)N1CCC(c2ccc(C)cc2)C1 (configuration not stated),"inconclusive [inhibitor, partial curve, poor fit]"
4,O=C(NN=Cc1ccc2c(c1)OCO2)NN=Cc1ccc2c(c1)OCO2,"inconclusive [inhibitor, partial curve, poor fit]"
5,CCCCCCCCN1C(=O)[C@H](CC(=O)NCc2ccc(OC)c(OC)c2)C[C@@]2(C(=O)OCC)CCCC=C12,active: 10 µM
6,O=C(Nc1ccc2nc3ccccc3nc2c1)c1ccccc1,inactive
7,Cc1cc(C)n(/C(=C\N(C)C)C(=O)c2ccc(Cl)cc2)n1,inactive
8,OC(c1ccc(F)cc1)c1nc(-c2cc3ccccc3o2)cs1 (configuration not stated),"inconclusive [inhibitor, single point]"
9,Cc1cc(N2CCCCC2)n2nc(C)c(-c3ccccc3)c2n1,"inconclusive [inhibitor, partial curve, poor fit]"
10,Brc1ccc(-c2nnc3n2C2(CCCC2)Cc2ccccc2-3)o1,"inconclusive [inhibitor, partial curve, poor fit]"
11,O=C1ON=C(c2ccccc2)/C1=C/c1ccc(-c2ccccc2[N+](=O)[O-])o1,inactive
12,Cc1ccc(CSc2nc(-c3ccc(C(C)(C)C)cc3)nc3cc(=O)[nH]n23)cc1,inactive
13,N#CC1=C(N)N2C(=C(C#N)C13CCCCC3)SC1CCCCC12O (configuration not stated),"inconclusive [inhibitor, single point]"
14,Cc1ccc([C@H]2C[C@@H](O)[C@H](n3cc(-c4ccc(F)cc4)nn3)CN2C(=O)c2cccs2)cc1,"inconclusive [inhibitor, partial curve, poor fit]"
15,NC1=C(Cl)C(=O)c2ccccc2C1=O,"inconclusive [inhibitor, single point]"
16,CCOc1ccc2nc(C)cc(Nc3ccc4c(c3)OCCO4)c2c1,"inconclusive [inhibitor, partial curve, poor fit]"
17,Cc1nc2ccccc2n1CCOc1ccccc1,inactive
18,CCC(C)NC(=O)CSC1=Nc2ccccc2C2=NC(CC(=O)NCc3ccccc3)C(=O)N12 (configuration not stated),inactive
19,COc1ccc(C(=O)C2CCN(CC(=O)Nc3cc(C)cc(C)c3)CC2)cc1,"inconclusive [inhibitor, partial curve]"
20,CCCCCCCCOC(=O)C1=C(C)Nc2nnnn2C1c1cccs1 (configuration not stated),"inconclusive [inhibitor, partial curve, poor fit]"
21,CCOC(=O)c1[nH]c(C)c(CCC(=O)N2CCN(c3cccc(C)c3C)CC2)c1C,"inconclusive [inhibitor, partial curve, poor fit]"
